# Assay results taken from the supplement of paper PMC8728848.
# The other results are listed elsewhere or left out.
# B1: F17bG (Escherichia coli), Q47200 (protein)
# chain: MTNFYKVFLAVFILVCCNISHAVVSFIGSTENDVGPSQGSYSSTHAMDNLPFVYNTGYNIGYQNANVWRIGGGFCVGLDGKVDLPVVGSLDGQSIYGLTEEVGLLIWMGDTNYSRGTAMSGNSWENVFSGWCVGNYLSTQGLSVHVRPVILKRNSSAQYSVQKTSIGSIRMRPYNGSSAGSVQTTVNFSLNPFTLNDTVTSCRLLTPSAVNVSLAAISAGQLPSSGDEVVAGTTSLKLQCDAGVTVWATLTDATTPSNRSDILTLTGASTATGVGLRIYKNTDSTPLKFGPDSPVKGNENQWQLSTGTETSPSVRLYVKYVNTGEGINPGTVNGISTFTFSYQ
# Key:
# Test in all cases: glycan array binding signal (z-score within array); higher = stronger binding
# Conditions in all cases: glycan notation: IUPAC condensed, linker removed
# [1] = molecular target: Man(a1-3)[Man(a1-6)]Man(a1-6)[Man(a1-2)Man(a1-3)]Man(b1-4)GlcNAc(b1-4)GlcNAc
# In short: (§1)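 Columns mapping to the same glycan were averaged after glycan names were converted to IUPAC-condensed notation. The data come from 3228 arrays in the Consortium for Functional Glycomics database, limited to those with an available protein sequence. Binding is reported as a within-array Z-score averaged across arrays of one protein sequence and across linkers.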
# [2] = molecular target: Man(a1-3)[Man(a1-6)]Man(a1-6)[Man(a1-3)]Man(b1-4)GlcNAc(b1-4)GlcNAc
# In short: as §1
# [3] = molecular target: Man(a1-3)[Man(a1-6)]Man(b1-4)GlcNAc(b1-4)GlcNAc
# In short: as §1
# Man(b1-4)GlcNAc = molecular target: Man(b1-4)GlcNAc
# In short: as §1
# Neu5Ac(a2-3)Gal = molecular target: Neu5Ac(a2-3)Gal
# In short: as §1
# [4] = molecular target: Neu5Ac(a2-3)Gal(b1-3)GalNAc
# In short: as §1
# [5] = molecular target: Neu5Ac(a2-3)Gal(b1-3)GalNAc(b1-3)Gal(a1-4)Gal(b1-4)Glc
# In short: as §1
# [6] = molecular target: Neu5Ac(a2-3)Gal(b1-3)GalNAc(b1-3)Gal(b1-4)GlcNAc
# In short: as §1
# [7] = molecular target: Neu5Ac(a2-3)Gal(b1-3)GalNAc(b1-4)[Neu5Ac(a2-3)]Gal(b1-4)Glc
# In short: as §1
# [8] = molecular target: Neu5Ac(a2-3)Gal(b1-3)GalNAc6S
# In short: as §1
# [9] = molecular target: Neu5Ac(a2-3)Gal(b1-3)GlcNAc
# In short: as §1
# [10] = molecular target: Neu5Ac(a2-3)Gal(b1-3)GlcNAc6S
# In short: as §1
# [11] = molecular target: Neu5Ac(a2-3)Gal(b1-3)[Fuc(a1-4)]GlcNAc
# In short: as §1
# [12] = molecular target: Neu5Ac(a2-3)Gal(b1-3)[Fuc(a1-4)]GlcNAc(b1-3)Gal(b1-4)[Fuc(a1-3)]GlcNAc
# In short: as §1
# [13] = molecular target: Neu5Ac(a2-3)Gal(b1-3)[Neu5Ac(a2-3)Gal(b1-4)]GlcNAc
# In short: as §1
# [14] = molecular target: Neu5Ac(a2-3)Gal(b1-3)[Neu5Ac(a2-6)]GalNAc
# In short: as §1
# Neu5Ac(a2-3)Gal(b1-4)Glc = molecular target: Neu5Ac(a2-3)Gal(b1-4)Glc
# In short: as §1
# [15] = molecular target: Neu5Ac(a2-3)Gal(b1-4)GlcNAc
# In short: as §1
# [16] = molecular target: Neu5Ac(a2-3)Gal(b1-4)GlcNAc(b1-2)Man(a1-3)[Neu5Ac(a2-3)Gal(b1-4)GlcNAc(b1-2)Man(a1-6)]Man(b1-4)GlcNAc(b1-4)GlcNAc
# In short: as §1
# [17] = molecular target: Neu5Ac(a2-3)Gal(b1-4)GlcNAc(b1-3)Gal(b1-4)GlcNAc
# In short: as §1
# [18] = molecular target: Neu5Ac(a2-3)Gal(b1-4)GlcNAc(b1-3)Gal(b1-4)GlcNAc(b1-3)Gal(b1-4)GlcNAc
# In short: as §1
# [19] = molecular target: Neu5Ac(a2-3)Gal(b1-4)GlcNAc(b1-3)Gal(b1-4)[Fuc(a1-3)]GlcNAc
# In short: as §1
# [20] = molecular target: Neu5Ac(a2-3)Gal(b1-4)GlcNAc6S
# In short: as §1
# [21] = molecular target: Neu5Ac(a2-3)Gal(b1-4)[Fuc(a1-3)]GlcNAc
# In short: as §1
# [22] = molecular target: Neu5Ac(a2-3)Gal(b1-4)[Fuc(a1-3)]GlcNAc(b1-3)Gal
# In short: as §1
# [23] = molecular target: Neu5Ac(a2-3)Gal(b1-4)[Fuc(a1-3)]GlcNAc(b1-3)Gal(b1-4)GlcNAc
# In short: as §1
# [24] = molecular target: Neu5Ac(a2-3)Gal(b1-4)[Fuc(a1-3)]GlcNAc(b1-3)Gal(b1-4)[Fuc(a1-3)]GlcNAc(b1-3)Gal(b1-4)[Fuc(a1-3)]GlcNAc
# In short: as §1
# [25] = molecular target: Neu5Ac(a2-3)Gal(b1-4)[Fuc(a1-3)]GlcNAc6S
# In short: as §1
# [26] = molecular target: Neu5Ac(a2-3)Gal6S(b1-4)GlcNAc
# In short: as §1
# [27] = molecular target: Neu5Ac(a2-3)Gal6S(b1-4)[Fuc(a1-3)]GlcNAc
# In short: as §1
# Neu5Ac(a2-3)GalNAc = molecular target: Neu5Ac(a2-3)GalNAc
# In short: as §1
# [28] = molecular target: Neu5Ac(a2-3)GalNAc(b1-4)GlcNAc
# In short: as §1
# [29] = molecular target: Neu5Ac(a2-3)[GalNAc(b1-4)]Gal(b1-4)Glc
# In short: as §1
# [30] = molecular target: Neu5Ac(a2-3)[GalNAc(b1-4)]Gal(b1-4)GlcNAc
# In short: as §1
# [31] = molecular target: Neu5Ac(a2-3)[Neu5Ac(a2-6)]GalNAc
# In short: as §1
# Neu5Ac(a2-6)Gal = molecular target: Neu5Ac(a2-6)Gal
# In short: as §1
# Neu5Ac(a2-6)Gal(b1-4)Glc = molecular target: Neu5Ac(a2-6)Gal(b1-4)Glc
# In short: as §1
# [32] = molecular target: Neu5Ac(a2-6)Gal(b1-4)GlcNAc
# In short: as §1
# [33] = molecular target: Neu5Ac(a2-6)Gal(b1-4)GlcNAc(b1-3)Gal(b1-4)GlcNAc
# In short: as §1
# [34] = molecular target: Neu5Ac(a2-6)Gal(b1-4)GlcNAc(b1-3)Gal(b1-4)[Fuc(a1-3)]GlcNAc(b1-3)Gal(b1-4)[Fuc(a1-3)]GlcNAc
# In short: as §1
# [35] = molecular target: Neu5Ac(a2-6)Gal(b1-4)GlcNAc6S
# In short: as §1
# Neu5Ac(a2-6)GalNAc = molecular target: Neu5Ac(a2-6)GalNAc
# In short: as §1
# [36] = molecular target: Neu5Ac(a2-6)GalNAc(b1-4)GlcNAc
# In short: as §1
# Neu5Ac(a2-8)Neu5Ac = molecular target: Neu5Ac(a2-8)Neu5Ac
# In short: as §1
# [37] = molecular target: Neu5Ac(a2-8)Neu5Ac(a2-3)Gal(b1-4)Glc
# In short: as §1
binder,measurement,setting,value
B1,glycan array binding signal (z-score),[1],-0.327
same,glycan array binding signal (z-score),[2],-0.326
same,glycan array binding signal (z-score),[3],-0.408
same,glycan array binding signal (z-score),Man(b1-4)GlcNAc,-0.566
same,glycan array binding signal (z-score),Neu5Ac(a2-3)Gal,0.212
same,glycan array binding signal (z-score),[4],-0.276
same,glycan array binding signal (z-score),[5],-0.335
same,glycan array binding signal (z-score),[6],0.937
same,glycan array binding signal (z-score),[7],-0.117
same,glycan array binding signal (z-score),[8],0.222
same,glycan array binding signal (z-score),[9],-0.129
same,glycan array binding signal (z-score),[10],0.227
same,glycan array binding signal (z-score),[11],-0.293
same,glycan array binding signal (z-score),[12],0.23
same,glycan array binding signal (z-score),[13],-0.082
same,glycan array binding signal (z-score),[14],0.06
same,glycan array binding signal (z-score),Neu5Ac(a2-3)Gal(b1-4)Glc,-0.498
same,glycan array binding signal (z-score),[15],0.027
same,glycan array binding signal (z-score),[16],-0.167
same,glycan array binding signal (z-score),[17],0.462
same,glycan array binding signal (z-score),[18],0.027
same,glycan array binding signal (z-score),[19],0.05
same,glycan array binding signal (z-score),[20],0.048
same,glycan array binding signal (z-score),[21],0.153
same,glycan array binding signal (z-score),[22],-0.413
same,glycan array binding signal (z-score),[23],0.716
same,glycan array binding signal (z-score),[24],-0.321
same,glycan array binding signal (z-score),[25],0.104
same,glycan array binding signal (z-score),[26],0.11
same,glycan array binding signal (z-score),[27],0.055
same,glycan array binding signal (z-score),Neu5Ac(a2-3)GalNAc,-0.22
same,glycan array binding signal (z-score),[28],-0.02
same,glycan array binding signal (z-score),[29],-0.136
same,glycan array binding signal (z-score),[30],-0.287
same,glycan array binding signal (z-score),[31],0.536
same,glycan array binding signal (z-score),Neu5Ac(a2-6)Gal,0.397
same,glycan array binding signal (z-score),Neu5Ac(a2-6)Gal(b1-4)Glc,-0.408
same,glycan array binding signal (z-score),[32],-0.204
same,glycan array binding signal (z-score),[33],-0.305
same,glycan array binding signal (z-score),[34],-0.279
same,glycan array binding signal (z-score),[35],0.143
same,glycan array binding signal (z-score),Neu5Ac(a2-6)GalNAc,-0.231
same,glycan array binding signal (z-score),[36],-0.319
same,glycan array binding signal (z-score),Neu5Ac(a2-8)Neu5Ac,-0.189
same,glycan array binding signal (z-score),[37],-0.136
